Experimental data as given in PubChem BioAssay AID1030 (National Center for Advancing Translational Sciences (NCATS), 2008).
Out of some 220,000 compounds screened, about 16,000 (7.3%) were called active. This list was built around the results that the source calls inconclusive (neither active nor inactive); the mix of calls is not that of the screen. Calls come from the whole dose curve; as a rule, active = well fitted inhibition curve with a large enough effect (not every such curve was filed as active); inconclusive = small, poorly fitted or top-dose-only effect, or another doubt; inactive = no such curve, though single readings can be large or run the other way. Potencies of inconclusive entries are left out as doubtful fits.
Potency is the fitted concentration of half-maximal effect; tags give direction and shape of the fitted curve.
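Throughout, for activity, negative = inhibition: plate controls were no enzyme wells and a reference inhibitor.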

The compounds below were run against Aldehyde dehydrogenase 1A1 (Homo sapiens) (UniProt P00352) (assay: qHTS Assay for Inhibitors of Aldehyde Dehydrogenase 1 (ALDH1A1)). Details: Purified ALDH1A1, NADH fluorescence, propionaldehyde substrate; series mostly up to 75.3 µM.
Chain of UniProt P00352 (P00352 whole entry, looked up): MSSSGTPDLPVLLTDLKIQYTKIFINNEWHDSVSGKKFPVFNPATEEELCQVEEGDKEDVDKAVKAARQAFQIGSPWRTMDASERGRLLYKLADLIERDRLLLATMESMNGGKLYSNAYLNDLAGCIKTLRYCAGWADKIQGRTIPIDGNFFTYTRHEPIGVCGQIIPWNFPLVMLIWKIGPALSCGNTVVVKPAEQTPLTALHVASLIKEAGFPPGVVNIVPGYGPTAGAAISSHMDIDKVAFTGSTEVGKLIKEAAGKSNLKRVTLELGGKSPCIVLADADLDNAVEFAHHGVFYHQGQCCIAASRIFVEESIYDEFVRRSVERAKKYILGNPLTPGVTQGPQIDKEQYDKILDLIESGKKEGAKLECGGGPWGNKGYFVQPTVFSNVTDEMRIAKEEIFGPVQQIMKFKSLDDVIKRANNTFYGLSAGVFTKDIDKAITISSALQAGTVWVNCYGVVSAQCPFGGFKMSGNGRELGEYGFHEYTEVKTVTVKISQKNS
In the case of `CCOc1ccc(NC(=NCc2ccc3c(c2)OCO3)SC2CC(=O)N(c3ccc(OCC)cc3)C2=O)cc1` (centres undefined), the Potency is reported as “inactive”.
In the case of `CC(=O)c1cccc(NC(=S)NNC(=O)c2ccco2)c1`, the Potency is reported as inconclusive [inhibitor, single point].
For `COc1ccccc1CN(CC(=O)NCc1ccc2c(c1)OCO2)C(=O)c1ccc2c(c1)OCCO2`, the Potency was active: 0.0794 µM.
For `Cc1noc2ncnc(Sc3ccc(Br)cc3)c12`, the Potency was inconclusive [inhibitor, single point].
In the case of `COc1cccc(NC(=O)C2CCCN(S(=O)(=O)c3cccc4nonc34)C2)c1` (centres undefined), the Potency is reported as “inactive”.
For `CN(C)CCC(=O)[C@@]1(O)CC[C@H]2[C@H]3CC=C4C[C@@H](O)CC[C@]4(C)[C@H]3CC[C@]21C`, the Potency was active: 0.316 µM.
For `CC(CCc1ccccc1)NC(=O)c1ccc2nc(N3CCOCC3)sc2c1` (centres undefined), the Potency was “inactive”.
For `CCOC(=O)CC1C(=O)NCCN1c1nc2ccc(C)cn2c(=O)c1/C=C1\SC(=S)N(C(C)CC)C1=O` (centres undefined), the Potency was active: 1.41 µM.
For `Clc1ccc(-c2csc(N/N=C/c3cccnc3)n2)c(Cl)c1`, the Potency was “inactive”.
`CCOc1ccccc1CNS(=O)(=O)c1ccc2[nH]c(=O)sc2c1` was tested, and the Potency was inconclusive [inhibitor, partial curve, poor fit].
In the case of `CC(C)(c1ccccc1)c1ccc(OCCN)cc1`, the Potency is reported as “inactive”.
For `COc1ccc(OC)c2sc(N3CCCCC3)nc12`, the Potency was inconclusive [inhibitor, single point].
For `Cc1cccc(NC(=O)CN2CCCN(S(=O)(=O)c3ccc(Br)s3)CC2)c1`, the Potency was inconclusive [inhibitor, single point].
For `CSc1ccc(C(=O)C2CCCN(C(=O)c3csc(C(C)=O)c3)C2)cc1` (centres undefined), the Potency was active: 2 µM.
With `Cc1nc(-c2ccccc2)sc1C(=O)/C=C/c1ccccc1` the Potency was active: 3.55 µM.
For `COc1ccccc1CN(Cc1cc2cc(C)ccc2[nH]c1=O)Cc1nnnn1CC1CCCO1` (centres undefined), the Potency was inconclusive [inhibitor, partial curve].
`COc1ccc(NC(=O)c2cccnc2Nc2ccc(OC)cc2)cc1` was tested, and the Potency was “inactive”.
For `CC1=C(C(=O)N2CCOCC2)C(c2ccc(OC(F)F)cc2)NC(=S)N1c1ccccc1` (centres undefined), the Potency was inconclusive [inhibitor, single point].
`CCCc1cc2c(=O)c(-c3ccc4c(c3)OCCO4)c(C)oc2cc1OS(C)(=O)=O` was tested, and the Potency was active: 0.355 µM.
`COc1ccc(Cl)cc1NC(=O)CN(C)Cc1ccc(OC)c(OC)c1` was tested, and the Potency was inconclusive [inhibitor, single point].
`COc1ccc(S(=O)(=O)N2CCC(C(=O)N3CCc4ccccc4C3)CC2)cc1` was tested, and the Potency was inconclusive [inhibitor, partial curve].
With `Cc1cccc(CSc2cccc3cccnc23)c1` the Potency was inconclusive [inhibitor, single point].
In the case of `CCCc1[nH]nc2c1C1(CCN(C(=O)OCc3ccccc3)CC1)C(C#N)=C(N)O2`, the Potency is reported as inconclusive [inhibitor, partial curve, poor fit].
For `COc1ccc2c(c1)CC/C(=C\c1ccc(OC)c(Cn3cccn3)c1)C2=O`, the Potency was inconclusive [inhibitor, partial curve].
In the case of `O=c1c2oc3ccccc3c2[nH]c(=S)n1-c1ccccc1`, the Potency is reported as active: 7.94 µM.
With `O=C(N/N=C\c1ccccn1)C1c2ccccc2Oc2ccccc21` the Potency was “inactive”.
For `COc1cc2c(cc1OC)OC(C)(C)C=C2`, the Potency was “inactive”.
With `CCc1ccc(/C=C/C(=O)c2c(C)cc(C)[nH]c2=O)cc1` the Potency was “inactive”.
In the case of `CCOC(=O)C1=C(C)N(C2CCCCC2)C(=O)C1`, the Potency is reported as inconclusive [inhibitor, single point].
With `N=C1S/C(=C\c2ccco2)C(=O)N1c1ccc2c(c1)OCO2` the Potency was inconclusive [inhibitor, single point].
For `N#C/C(=C\Nc1ccccc1SC(F)(F)F)c1nc(-c2ccc(Cl)cc2)cs1`, the Potency was “inactive”.
`CCc1nc2ccc(C(=O)O)cc2nc1CC` was tested, and the Potency was “inactive”.
For `CCN(CC)c1cc(C)c2cc(NC(=O)CNC(C)=O)ccc2n1`, the Potency was inconclusive [inhibitor, partial curve].
For `Cc1cccn2c(=O)c3cc(C(=O)NCC4CCCO4)c(=N)n(Cc4cccnc4)c3nc12` (centres undefined), the Potency was inconclusive [inhibitor, partial curve].
With `CCCc1nc(NC2CCCCC2)c(C#N)c2c1COC(C)(C)C2` the Potency was inconclusive [inhibitor, single point].
With `COc1ccc2c(C)cc(SCC(=O)Nc3ccc(Cl)cn3)nc2c1` the Potency was inconclusive [inhibitor, partial curve].
For `CSc1ccccc1NC(=O)c1cc(CC(C)C)on1`, the Potency was inconclusive [inhibitor, partial curve].
For `CC(C)Cn1nnnc1S(=O)(=O)CC#N`, the Potency was “inactive”.
In the case of `COc1cccc(C2C(C(=O)c3cc4cccc(OC)c4o3)=C(O)C(=O)N2c2cc(C)on2)c1OC` (centres undefined), the Potency is reported as inconclusive [inhibitor, single point].
`COc1ccc(-c2nc(C#N)c(NCc3cccnc3)o2)cc1OC` was tested, and the Potency was inconclusive [inhibitor, single point].
With `Cc1cccc(Nc2nc(N)c([N+](=O)[O-])c(N3CCCC(C)C3)n2)c1` (centres undefined) the Potency was inconclusive [inhibitor, single point].
For `Fc1cccc(NC(=S)NCc2ccccc2Cl)c1`, the Potency was inconclusive [inhibitor, partial curve].
In the case of `CCCn1c(-c2ccc(F)cc2)nc2c(NC3CCN(Cc4ccccc4)CC3)nc(C)nc21`, the Potency is reported as inconclusive [inhibitor, single point].
For `CCCn1ncc(CN2CCN(Cc3ccsc3)C(CCO)C2)c1C` (centres undefined), the Potency was “inactive”.
With `COCCn1c(=O)c(-c2ccc(OC)cc2)nc2cnc(N3CCN(C)CC3)nc21` the Potency was inconclusive [inhibitor, single point].
In the case of `Cc1ccc(Nc2nc(Cl)c(C=O)s2)cc1Cl`, the Potency is reported as inconclusive [inhibitor, single point].
For `Cc1cc(NC(=O)c2cc(C(C)C)on2)nn1Cc1ccc(Cl)cc1`, the Potency was “inactive”.
For `O=C(O)c1ccc(N/N=C/c2cccc(F)c2)cc1`, the Potency was active: 20 µM.
`CCOc1ccc2nc(NC(=O)C(NS(=O)(=O)c3cccc4nsnc34)C(C)C)sc2c1` (centres undefined) was tested, and the Potency was “inactive”.
`Cc1cc(C)nc(N2CCC(C(=O)NCCc3ccc(Cl)cc3)CC2)n1` was tested, and the Potency was “inactive”.
With `COc1ccc2cc3cc(C(=O)NCC4CCCO4)oc3nc2c1` (centres undefined) the Potency was inconclusive [inhibitor, partial curve].
With `CCN(CC)S(=O)(=O)c1ccc(C(=O)NCCCN=C2NS(=O)(=O)c3ccccc32)cc1` the Potency was inconclusive [inhibitor, single point].
`CCCOc1ncnc2c1[nH]c1ccccc12` was tested, and the Potency was inconclusive [inhibitor, single point].
For `Cc1nnc(SCc2nnc(-c3cccs3)o2)s1`, the Potency was “inactive”.
In the case of `O=c1cc(NCCCO)c2ccccc2o1`, the Potency is reported as inconclusive [inhibitor, single point].
`Cc1ccc(S(=O)(=O)NCc2nc3ccccc3c(=O)n2N)cc1` was tested, and the Potency was inconclusive [inhibitor, single point].
`Cc1ccc(N(CN2CCCC2=O)C(=O)c2ccc(OC(C)C)cc2)cc1` was tested, and the Potency was “inactive”.
With `CC(C)N1C(=O)S/C(=C/c2cccnc2)C1=O` the Potency was active: 12.6 µM.
`CCN(CC)CCOC(=O)c1ccc(NC(=O)CNC(=O)C2CCCCC2)cc1` was tested, and the Potency was inconclusive [inhibitor, single point].
In the case of `Cc1cccn2c(=O)c(/C=C(\C#N)C(=O)NC3CCS(=O)(=O)C3)c(N3CC(C)OC(C)C3)nc12` (centres undefined), the Potency is reported as inconclusive [inhibitor, partial curve].
With `O=C(O)c1ccc(N/N=C/c2cn(-c3ccccc3)nc2-c2cccs2)cc1` the Potency was inconclusive [inhibitor, single point].
With `CCc1ccc(C2CC(c3ccc(Cl)cc3)=NNC2=O)cc1` (centres undefined) the Potency was inconclusive [inhibitor, single point].
`Cn1ncc2c(Nc3cccc(C(=O)O)c3)ncnc21` was tested, and the Potency was active: 12.6 µM.
In the case of `CCOC(=O)c1cnc2c(ccc3ccccc32)c1NCCO`, the Potency is reported as inconclusive [inhibitor, partial curve].
`COc1cccc(Nc2nc3ccccc3nc2-n2nc(C)cc2C)c1` was tested, and the Potency was inconclusive [inhibitor, partial curve, poor fit].
`Cc1cccc(NC(=O)CCSc2ccccn2)c1` was tested, and the Potency was inconclusive [inhibitor, single point].
For `CC(=O)c1ccc(OCC(O)CN2CCN(c3ccccn3)CC2)cc1` (centres undefined), the Potency was “inactive”.
With `O=C(O)c1cc([N+](=O)[O-])ccc1Nc1ccccc1` the Potency was “inactive”.
`CC12CN3CC(C)(CN(C1)C31C(=O)N(Cc3ccccc3)c3ccccc31)C2=O` (centres undefined) was tested, and the Potency was active: 7.94 µM.
With `Cc1ccc2c(c1)N(C(=O)CCC(=O)N1CCc3ccccc3C1)CCO2` the Potency was active: 20 µM.
With `CC(C)Cn1cnc2c1c(=O)n(CC(=O)Nc1ccc3c(c1)OCO3)c(=O)n2Cc1ccccc1` the Potency was inconclusive [inhibitor, single point].
For `CC(C)C(NC(=O)c1ccccc1Cl)C(=O)OCc1nc2scc(-c3ccccc3Cl)c2c(=O)[nH]1` (centres undefined), the Potency was inconclusive [inhibitor, single point].
For `OC(COCC1COc2ccccc2O1)CN1CCCCC1` (centres undefined), the Potency was “inactive”.
With `O[C@@H](c1cc([C@@]23C[C@H]4CC[C@@H]2C[C@H](C4)C3)nc2c(Cl)cc(Cl)cc12)C1CCCCN1` (some centres undefined) the activity, negative = inhibition was inactive: 2.4% [at 13.5 µM].
